Test results from PubChem BioAssay AID588453 (National Center for Advancing Translational Sciences (NCATS), 2011).
Screen size: about 390,000 compounds; about 4,000 (1%) were called active. The inconclusive results got no clear call from the source; some entries with a clear call stand among them for comparison. Calls follow the shape of the dose curve; as a rule, active = well fitted inhibition curve with a large enough effect; inconclusive = small, poorly fitted or top-dose-only effect; inactive = no such curve, though single readings can be large or run the other way. Where the call is inconclusive, the potency comes from a doubtful curve fit.

These compounds were tested against Thioredoxin reductase 1, cytoplasmic (Rattus norvegicus) (UniProt O89049) (assay: qHTS Assay for Inhibitors of Mammalian Selenoprotein Thioredoxin Reductase 1 (TrxR1): qHTS). Settings: recombinant rTrxR1, NADPH fluorescence consumption, selenite substrate; series mostly up to 114 µM; activity change, negative = inhibition: at the top concentration.
UniProt O89049, sequence (O89049 whole entry, looked up): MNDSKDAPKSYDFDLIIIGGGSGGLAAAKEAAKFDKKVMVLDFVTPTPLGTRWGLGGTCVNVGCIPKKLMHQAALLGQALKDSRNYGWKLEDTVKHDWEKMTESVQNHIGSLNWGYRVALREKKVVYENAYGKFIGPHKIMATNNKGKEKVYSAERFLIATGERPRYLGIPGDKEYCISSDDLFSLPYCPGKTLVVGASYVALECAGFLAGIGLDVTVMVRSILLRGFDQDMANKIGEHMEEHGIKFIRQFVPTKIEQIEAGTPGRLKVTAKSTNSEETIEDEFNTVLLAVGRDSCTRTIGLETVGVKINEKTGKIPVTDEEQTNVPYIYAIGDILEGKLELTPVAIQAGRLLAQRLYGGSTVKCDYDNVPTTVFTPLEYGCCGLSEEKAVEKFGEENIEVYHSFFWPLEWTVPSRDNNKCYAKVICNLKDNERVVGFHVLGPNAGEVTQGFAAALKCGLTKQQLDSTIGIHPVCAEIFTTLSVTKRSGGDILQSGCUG
Outline: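 Rat TrxR1 (90 nM in the dispensed reagent) was pre-reduced with 400 uM NADPH for 5 min at room temperature, then incubated with compound for 15 min. After 400 uM selenite was added, NADPH fluorescence (Ex 340/Em 450 nm) was followed for 8 min.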
% is scaled to controls: 0 for no effect and ±100 for the full control effect; potency is read from the fitted curve at half-maximal effect; tags tell the direction and shape of the fitted curve.
Also: nearly all actives have a fitted effect of over 65% in size.

SMILES	Potency	activity change, negative = inhibition
CC(C)C(=O)Nc1cccc(NC(=S)NC(=O)c2ccc(Cl)cc2)c1	inconclusive: 12.6 µM [inhibitor, partial curve, poor fit]	–
COc1ccc(C(=O)OC(C)C(=O)NC(C)CCc2ccccc2)c(OC)c1 (centres undefined)	–	inactive: 7.1%
CCOC(=O)C1=C(C)N(C[C@@H]2CC[C@@H](Cc3ccc(-c4ccccc4)cc3)O2)C(=O)NC1c1ccc(SCc2ccco2)c([N+](=O)[O-])c1 (some centres undefined)	inconclusive: 79.4 µM [inhibitor, partial curve]	–
Cc1cc(C)c(C(=O)C[n+]2cccc(C(N)=O)c2)c(C)c1	inconclusive: 39.8 µM [inhibitor, single point]	–
COc1cc2nc(=S)n3[nH]c(CCn4nc(C)cc4C)nc3c2cc1OC	inconclusive: 39.8 µM [inhibitor, full curve]	–
Cn1c(=O)c2c(n(Cc3ccccc3)c1=O)NC(=O)C2CC(=O)N1CCc2ccccc2C1 (centres undefined)	inconclusive: 70.8 µM [inhibitor, partial curve]	–
COc1ccc(-n2c(=S)[nH]c3cc(C(=O)NCc4ccco4)ccc3c2=O)c(OC)c1	inconclusive: 4.47 µM [inhibitor, full curve]	–
CCOC(=O)N1CCC(NC(=O)c2cnn(-c3ccc(C)cc3)c2C2CCN(C(=O)OC(C)(C)C)CC2)CC1	–	inactive: 0.823%
CCOc1ccc(-c2cc(CCCC(=O)NCCc3ccc(OC)c(OC)c3)no2)cc1	–	inactive: 2.03%
Cc1ccc(NC(=O)Cn2c(=O)cnc3ccccc32)cc1S(=O)(=O)N1CCCCC1	–	inactive: 10.1%
COC(=O)/C=c1/s/c(=C(\C#N)C(=O)NCc2ccco2)n(-c2ccccc2)c1=O	inconclusive: 50.1 µM [inhibitor, partial curve]	–
Cc1cccc(NC(=O)c2oc3ccc(S(=O)(=O)N(C)C4CCCCC4)cc3c2C)c1C	–	inactive: 2.06% [at 57.1 µM]
CN(C)/[N+]([O-])=N/Oc1cc(O/[N+]([O-])=N/N2CCCC2CO)c([N+](=O)[O-])cc1[N+](=O)[O-] (centres undefined)	inconclusive: 10 µM [inhibitor, partial curve]	–
CC[C@H](C)/C=C/C1=CC2=C(Cl)C(=O)[C@@]3(C)OC(=O)C(C(=O)[C@H](C)[C@@H](C)O)=C3C2=CO1	inconclusive: 25.1 µM [inhibitor, single point]	–
CN(C)NC(=S)Nc1cccc(Cl)c1	–	inactive: 5.76%
CCCC(C)c1nc(C(N)=O)c2[nH]c(=O)n(-c3ccc(OC)cc3OC)c2n1 (centres undefined)	inconclusive: 7.94 µM [inhibitor, full curve, poor fit]	–
O=S1(=O)C2CC3OC2(CC3c2ccc(F)cc2)CN1Cc1ccc(Cl)cc1 (centres undefined)	–	inactive: 1.26%
O=C(O)c1ccccc1NS(=O)(=O)c1ccc(N/N=C/c2ccc(O)c(O)c2)c([N+](=O)[O-])c1	inconclusive: 44.7 µM [inhibitor, partial curve]	–
COC(=O)Cc1n[nH]c(=S)[nH]c1=O	inconclusive: 4.47 µM [inhibitor, full curve]	–
CCc1cccc(NC(=O)CSc2n[nH]c(-c3ccccc3Cl)n2)c1	–	inactive: 17.1% [at 57.1 µM]
[N-]=C=C1C(=S)NC(=O)[C@H]([n+]2ccccc2)[C@H]1c1ccc(Cl)cc1	inconclusive: 79.4 µM [inhibitor, single point]	–
CN(CC1CCOCC1)C(=O)CC1C(=O)NCCN1Cc1ccc(F)c(F)c1 (centres undefined)	inconclusive: 79.4 µM [inhibitor, partial curve]	–

SMILES	Potency	activity change, negative = inhibition
Cc1nc2c(sc(=S)n2Cc2ccco2)c(=O)n1CC(=O)Nc1ccccc1	inconclusive: 44.7 µM [inhibitor, partial curve]	–
c1ccc(OCCn2c(-c3ccco3)nc3ccccc32)cc1	active: 14.1 µM	–
Cc1ccc(NC(=O)CN2C(=O)CSc3ccc(S(=O)(=O)N(C)C)cc32)c(C)c1	–	inactive: 12.3% [at 57.1 µM]
O=C(OC[C@H]1O[C@@H](OC(=O)c2cc(O)c(O)c(OC(=O)c3cc(O)c(O)c(O)c3)c2)[C@H](OC(=O)c2cc(O)c(O)c(OC(=O)c3cc(O)c(O)c(O)c3)c2)[C@@H](OC(=O)c2cc(O)c(O)c(OC(=O)c3cc(O)c(O)c(O)c3)c2)[C@@H]1OC(=O)c1cc(O)c(O)c(OC(=O)c2cc(O)c(O)c(O)c2)c1)c1cc(O)c(O)c(OC(=O)c2cc(O)c(O)c(O)c2)c1	inconclusive: 70.8 µM [inhibitor, partial curve]	–
Oc1ccc(N=C/C=C/c2cccc(Br)c2)cc1-c1nc2ccccc2s1	inconclusive: 20 µM [inhibitor, partial curve]	–
O=C(Cn1cc2c(n1)CCCC2)Nc1cc(C(F)(F)F)ccc1Cl	–	inactive: -4.89%
O=S(=O)(c1ccccc1)C1(S(=O)(=O)c2ccccc2)CCCC1	–	inactive: 11.7%
COc1cc2c(NC3CCN(C)CC3)nc(N3CCCN(C)CC3)nc2cc1OCCCCCCN(C)C	inconclusive: 79.4 µM [inhibitor, single point]	–
CCS(=O)(=O)C1=NN2C(=N)/C(=C\c3ccc(SCc4ccco4)o3)C(=O)N=C2S1	inconclusive: 25.1 µM [inhibitor, partial curve]	–
C=CCc1cc(Cl)ccc1OCCNCCCOC	inconclusive: 79.4 µM [inhibitor, partial curve, poor fit]	–
CCCn1cc(CN2CCCC(C(=O)c3ccc4c(c3)OCO4)C2)c(C)n1 (centres undefined)	inconclusive: 89.1 µM [inhibitor, single point]	–
COc1cc2c(cc1OC)C(c1ccccc1O)N(C1CC(=O)N(c3ccccc3)C1=O)CC2 (centres undefined)	inconclusive: 39.8 µM [inhibitor, single point]	–
COC(=O)C(NC(=O)CCc1c(C)nc2cc(-c3cccc(F)c3)nn2c1C)C(C)C (centres undefined)	inconclusive: 89.1 µM [inhibitor, single point]	–
CCCOC1CCCN(Cc2cn(C)nc2-c2ccccc2F)C1 (centres undefined)	inconclusive: 79.4 µM [inhibitor, partial curve, poor fit]	–
S=c1[nH]nc(COc2ccccc2)n1/N=C/c1cccc(Br)c1	inconclusive: 3.16 µM [inhibitor, partial curve, poor fit]	–
Cc1cnn(CCC(=O)NNC(=S)Nc2ccc(F)cc2)c1	–	inactive: -20.9%
O=C1CSC(=S)N1/N=C/c1ccc(O)c(O)c1O	inconclusive: 44.7 µM [inhibitor, partial curve, poor fit]	–
N#Cc1cc2c(=O)n3ccccc3nc2n(Cc2cccnc2)c1=O	inconclusive: 89.1 µM [inhibitor, single point]	–
CC1(C)CC(=O)C(C(C2=C(O)CC(C)(C)CC2=O)c2ccc([N+](=O)[O-])cc2)C(=O)C1 (centres undefined)	inconclusive: 50.1 µM [inhibitor, partial curve]	–
COc1ccc(C2CC(=O)C(C=NCCCN3CCOCC3)=C(O)C2)cc1 (centres undefined)	inconclusive: 39.8 µM [inhibitor, single point]	–
Cc1ccc2c(c1)N(CC(=O)NC1CCC(C)CC1)C(=O)c1cccnc1O2 (centres undefined)	–	inactive: 9.76% [at 57.1 µM]
O=C(c1cc(-c2ccco2)nc2ccccc12)N1CCCC(C(F)(F)F)C1 (centres undefined)	inconclusive: 10 µM [inhibitor, single point]	–

SMILES	Potency	activity change, negative = inhibition
COCCNC(=O)CN(C(=O)c1ccc(N2CCCC2)nc1)c1ccc(F)c(Cl)c1	inconclusive: 79.4 µM [inhibitor, single point]	–
Cc1ccc(C(C)NC(=O)c2c(-c3ccccc3)noc2C)cc1C (centres undefined)	–	inactive: 13.3%
Cn1cnc([N+](=O)[O-])c1Sc1nc(N)nc2c1ncn2Cc1ccccc1	active: 6.31 µM	–
CCN1CC2CCCC3(C1)C(=O)NC1(CCCCC1)N=C23 (centres undefined)	inconclusive: 17.8 µM [inhibitor, full curve]	–
COc1cc(CC2COC(=O)C2(O)Cc2ccc(O)c(OC)c2)ccc1O (centres undefined)	–	inactive: 4.39% [at 57.1 µM]
COc1cccc(CNC(=O)Cc2csc3nc(-c4ccccc4)cn23)c1	–	inactive: 18.4% [at 57.1 µM]
CCOC(=O)COc1ccc(/C=C/[N+](=O)[O-])c(OCC(=O)OCC)c1	inconclusive: 2 µM [inhibitor, full curve]	–
CC(=O)c1ccc(NC(=S)NNC(=O)c2ccncc2)cc1	inconclusive: 56.2 µM [inhibitor, single point]	–
CC1C(=O)NN=C1C(=O)N/N=C/c1cccs1 (centres undefined)	inconclusive: 79.4 µM [inhibitor, partial curve, poor fit]	–
Cc1ccc(-c2nc(=Nc3c(C)cc(C)cc3C)sn2-c2ccccc2)cc1	–	inactive: 1.98%
CN1CCC2(CC1)N=C(c1ccc(F)cc1)C(=S)N2C(=O)c1ccc(C(C)(C)C)cc1	inconclusive: 31.6 µM [inhibitor, full curve, poor fit]	–
CN(C)/[N+]([O-])=N/Oc1cc(F)c([N+](=O)[O-])cc1[N+](=O)[O-]	active: 20 µM	–
Cc1ccc(CNS(=O)(=O)c2cc(F)ccc2CN2C(=O)c3cccnc3C2=O)o1	inconclusive: 50.1 µM [inhibitor, partial curve]	–
COc1cc(OC)cc(OCC(O)Cn2cnc(-c3ccccc3)c2)c1 (centres undefined)	inconclusive: 28.2 µM [inhibitor, partial curve, poor fit]	–
O=C(CCS(=O)(=O)c1cccc2nonc12)NCCc1ccccc1	inconclusive: 17.8 µM [inhibitor, full curve]	–
Cc1ccc(C(=O)n2nc(C)c(S(=O)(=O)N3CCOCC3)c2C)cc1	–	inactive: -11.7% [at 57.1 µM]
O=C(Cc1ccccc1)NCC(=O)Nc1cc(Cl)ccc1Cl	–	inactive: 12% [at 57.1 µM]
CN=C1N[C@H](c2ccccc2)N(c2ccccc2)S1	inconclusive: 39.8 µM [inhibitor, partial curve]	–
COc1cc(/C=C/C(=O)c2ccc([N+](=O)[O-])o2)ccc1O	active: 7.94 µM	–
Cc1nc2c(sc3nc4c(cc32)COC(C)(C)C4)c(=O)n1CC(=O)NCc1ccco1	inconclusive: 50.1 µM [inhibitor, partial curve, poor fit]	–
